Data published in publication PMC3538594 (PLoS ONE, 2013).

Target: recombinant complex II (Thermus thermophilus, UniProt Q5SIC0)
Test: EPR signal of the [2Fe-2S] cluster (axial/rhombic transition)
Set-up: species or system T. thermophilus
Conditions: in the presence of 20 mM succinate, 6 µM rcII sample
Protocol: EPR spectra were recorded on a Bruker ElexSys X-band spectrometer fitted with an Oxford Instrument He-cryostat and temperature control system. Buffers used were either 50 mM MOPS at pH 7 or a mixture of 100 mM MOPS and 100 mM piperazine for the pH experiments. […] Additions of reducing agents were performed at room temperature followed by vortexing and freezing of the sample in liquid nitrogen within 5 min after addition.
Figure 5 Influence of redox mediators, buffer and inhibitors on EPR spectra of the recombinant complex II. […] The spectrum labeled ‘asc’ was obtained on a sample reduced by 5 mM ascorbate, ‘malate’ by addition of 20 mM malate, ‘dith’ by addition of 1 mM dithionite. Vertical lines indicate the position of the gx-signal. Spectra were recorded at a temperature of 50 K, microwave power of 64 mW and a modulation amplitude of 1 mT.
Protein concentration was 10 µM. Spectra were recorded at a temperature of 50 K, microwave power of 64 mW and a modulation amplitude of 1 mT.

Structure (SMILES) | concentration sufficient to obtain the axial signal
O=C1C=CC(=O)c2ccccc21 [1,4-NQ, 1,4-naphthoquinone] | 10 µM
O=C1C=CC(=O)C=C1 [p-BQ, p-benzoquinone] | 20 µM
